According to the supplement of paper PMC11417369:
This is one part of the list.

Tested on: PfHDP1 homeodomain (GST-tagged)
Assay: gcPBM binding intensity (ln(normalized median fluorescence intensity)); higher = stronger DNA binding
In short: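 Probes on an Agilent 4 × 180k array were primer-extended, double-stranded and 36 bp long, taken from intergenic genomic regions, with negative controls added. GST-tagged P. falciparum DNA-binding domains from E. coli, about 25 μg on average, were applied to the array for 1 h in 1× PBS containing 1% milk, 0.2 mg/ml BSA, 0.5% salmon testes DNA and 0.03% Triton X-100. Binding intensity, obtained after Alexa488 anti-GST antibody detection and a 488 nm scan, is the highest Masliner-normalised natural-log median intensity across replicate spots of either probe orientation.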

Row | Sequence | gcPBM binding intensity (ln)
1 | TATTCATAATTTTAATGTACAAAATGGTTTGTAATA [XGTACX_site8493] | 6.3
2 | TTGTAATTTATTCAAACACACAATTTGGACCTTTTT [CACACA_site1063] | 6.05
3 | AAAGATAAATTAAAAAGTACATATTTATTCAATGTA [XGTACX_site8543] | 6.01
4 | ATCCATCTTTTAATTTGTACTTATTCTTTTTTCTTT [XGTACX_site5299] | 7.03
5 | ATATATATATGTAATAGTACATATGATAGTTTGTCA [XGTACX_site1545] | 8.51
6 | ATTAGTTTTATATATAGTACATATAATTTTGAAGGT [XGTACX_site7445] | 7.74
7 | TTTTTTTTCAATGGTTGTACAAAGTAAAACAACAAA [XGTACX_site1582] | 6.37
8 | TGGGTGTAGAACAATTGTACTTTGTAAAAATATAAG [XGTACX_site8464] | 6.59
9 | CACTTTTTTTTTTACTGTACATATACAAATTAAAAA [XGTACX_site1565] | 6.63
10 | TATAATAATTAAAAGTGTACTAAATTTTTACATATA [XGTACX_site2523] | 6.36
11 | TTTTATTTATCTTAATGTACACATTTATATATATAT [XGTACX_site8588] | 8.49
12 | TTAAATAAAAGGTTTAGTACTTAAAATAAGAAATGA [XGTACX_site6341] | 6.34
13 | GTAAATATAAACTCAGCACACAAACATATATATGTC [CACACA_site9326] | 6.57
14 | TTATATATATTTAAAAAAATAACATAAATAAATAAA [CACACA_negctrl_site347] | 6.25
15 | TGCAAGCTTATATAGGTGCACATGTATACGTGTTCA | 8.68
16 | TATGTAGTCACAAGGTGTACACTTTAACAAATTATG [XGTACX_site8792] | 7.01
17 | TATATACACAAACACACACACACATACACCCACATA [CACACA_site8504] | 7.32
18 | TATTAAAATTAAAAAAAAAAAAAAAAGCAATAAAAA [XGTACX_negctrl_site426] | 6.24
19 | TTCTAACTTTTAAACACACAAATATAAATAAGTATA [CACACA_site7473] | 6.42
20 | AAATGAACAAGTGGCACACACACATTATAACTAATT [CACACA_site9048] | 6.17
21 | AAGAATAATAATAAATGTACACAATATTATATATAT [XGTACX_site5525] | 7.12
22 | GAACGTATCATGTGTACACACAAATTGTTTTTTTTT [CACACA_site2020] | 7.16
23 | CCCGTAAATTATGAGTGTACGTTATTTTTTAAAATG [XGTACX_site3946] | 6.64

Row | Sequence | gcPBM binding intensity (ln)
24 | ACATATACATATATATGTACATAAATATATATATAT [XGTACX_site8630] | 8.78
25 | GTGCATATCTGATATACACACAATAAAATAGTATGT [CACACA_site7203] | 6.95
26 | AATTATATATTTGAGAGTACATATGTAATGTTTATA [XGTACX_site6970] | 6.64
27 | TATGATACATAAATATGTACGTATAATATATATTTA [XGTACX_site7002] | 6.4
28 | CATATATTATTTATACGTACTAATAAAATAAATCAA [XGTACX_site1030] | 6.24
29 | ATATATATATATTGCACACACAATTATTATTATTAT [CACACA_site2299] | 10.6
30 | ATGCTTTTTAAATGATTGCACTAGATTGTAATATGT [GTGCAC_site9666] | 8.32
31 | TATATATATATTTTAACACACACATATATATATTTA [CACACA_site8892] | 8.16
32 | AAGCTTCATTAATATACACACATATATGCGTATATT [CACACA_site3695] | 6.53
33 | AAATTTGAAGAATATTGTACGCATAATAATTAAATA [XGTACX_site4300] | 6.77
34 | TATATAATTATAAGAACACACATATATATATATATA [CACACA_site2472] | 9.28
35 | TGTATGAAATATATTACACACATATAAAATCTATAT [CACACA_site6514] | 6.47
36 | TTTTTAATTTTTTGTTGTACATATAATATATTATTA [XGTACX_site4903] | 6.68
37 | TTGATGTTGGTAGGATGTACGGTACCGGTAAAGTTT [XGTACX_site7705] | 6.55
38 | AATAATACACAATTTTGTACGTATTTAAAATATATT [XGTACX_site45] | 6.74
39 | TAAAATATATAATAATGTACATATTTTTATTTAGGA [XGTACX_site4987] | 6.11
40 | TATTTATGAGAAATAGTGCAAAGATATGATCTTTAA | 8.41
41 | AATTAAAAACATTTCACACATAAAAATGAAATATAT [CACACA_site5199] | 6.24
42 | ATAAAATAAAAGTGTACACAAGAAAATATGTTATGT [CACACA_site6033] | 7.82
43 | TGTGCTATATTCATATGTACATATAATTATTATATA [XGTACX_site3549] | 6.83
44 | AAAAATTACCTGACTTGTACATAATTTAAGAACAAT [XGTACX_site6233] | 6.26
45 | ACGTTTGATACACATAAAGTTTTCCTTTGAATGTAC [CACACA_negctrl_site106] | 6.68
46 | GGTATATTAAAATAGGTGCATAAAACTAAGAGAAAA [GTGCAC_site9781] | 10.4

Row | Sequence | gcPBM binding intensity (ln)
47 | ATAATATATTTATAATGTACATAAGAACAAATTAAA [XGTACX_site1745] | 6.67
48 | CATATTAATATTATGGGTACATATAAATTTACATTC [XGTACX_site687] | 6.6
49 | TCTTTTTTTATTTTATTTTTTTTTTTTAAATAATTC [TGCATGCA_negctrl_site372] | 6.3
50 | ATTATAATATTGTTATGTACATAAAAATTATTGAAT [XGTACX_site4476] | 6.79
51 | AAAACATAAATACATACACACATAATATATATTAAT [CACACA_site109] | 6.77
52 | AACATGAAAGATAGCAAAAAAAAAAAAAAAAAAAAA [TGCATGCA_negctrl_site607] | 5.94
53 | AAAAAATAATAAATCACACATATTATATATATATAT [CACACA_site5838] | 8.94
54 | AAATTATAATATAATACACACATAAAAAAAAAATCA [CACACA_site3634] | 6.69
55 | TATATATATATATATTGTACACATATATATTTACGA [XGTACX_site4791] | 9.08
56 | ATAATAAAAATAAGAGAATAAAAATGCAATTTAATG [CACACA_negctrl_site878] | 7.02
57 | TCCTTTATTTTTAAATGTACAAATATTATCTCCTCA [XGTACX_site5856] | 6.5
58 | TTTTTTTATTATCATGCACACATTTTTTTTTTTTAC [CACACA_site2253] | 8.72
59 | ACTTGACACGGACACACACACATATATAAAAAAAAA [CACACA_site4576] | 6.89
60 | TGATTCTTTTGTATCACACACACTTAGTTTAATTTT [CACACA_site2404] | 6.87
61 | ATTGATCGGATAAAATGTACAAATATATATATATAT [XGTACX_site7345] | 9.16
62 | ATTTATAATGTGTATACACACATATATAGATTTGCT [CACACA_site6440] | 6.82
63 | AACTCACATAAATTCACACAAATGTATATTCATATA [CACACA_site4554] | 6.35
64 | TATATATATTTATATGCATGTAATATATTTGTATTG [TGCATGCA_site323] | 6.58
65 | TGTTCTCTTCTTTTTTATTTTCCAAAGTAATAAGTT [TGCATGCA_negctrl_site424] | 6.48
66 | TTAATTATAATTATATGTACGAACTTTTTTTTTTTT [XGTACX_site6586] | 6.22
67 | CATAAATCAGCCATAACACACATACATAAATACATA [CACACA_site4380] | 6.6
68 | AGAAAAAAGAGGGATACACACAAACATATATATATA [CACACA_site5269] | 8.78
69 | AATTATTTTATGAAAAGTACACATTGTTTTAATTCT [XGTACX_site4506] | 6.12

Row | Sequence | gcPBM binding intensity (ln)
70 | TAAATAAGTATTACTAGTACACACAAGTTGTTAATC [XGTACX_site7074] | 6.5
71 | ACAGTATCTGGTAGCTGTACGAGTCGTAGAGTGTAG [XGTACX_site2011] | 6.69
72 | TTCATTAATGTGTAATGTACTTGTAATATGGGATTA [XGTACX_site3903] | 6.42
73 | AATATATAAATAAATATATAAATAAATAATTGAAGC [CACACA_negctrl_site348] | 6.52
74 | AAAATATAAAGTATTTGTACATAATATATTTTTAAA [XGTACX_site3494] | 6.07
75 | CATTTTTTAATAATAGCACACAGGACATACAAAACA [CACACA_site1245] | 7.22
76 | TTATATATTTTATTATTTATAATCTTTTTTTTATTT [CACACA_negctrl_site112] | 6.1
77 | TTATATTTCAATTAAACATGCATTTTTGTGTAGCAC [TGCATGCA_site214] | 6.56
78 | TCATATAGATTATACACACACATATATAGATATATA [CACACA_site6587] | 6.75
79 | AAATTGATTATAAATTGTACAAGAACATACAACCTT [XGTACX_site5986] | 6.23
80 | CAAAAGCGATACGGCACACATTTCCTGTTTAAATGA [CACACA_site5519] | 6.25
81 | TTAATTTTTAGAAGAACACACACATATATATTATGA [CACACA_site7969] | 6.33
82 | TTTTGCCTTTCTACTTGTACTTAAAATATTATAATT [XGTACX_site5483] | 7.22
83 | TGGTATATAAAACACACACACATATGTATTTATATA [CACACA_site4665] | 6.62
84 | TTTATTTATTATTAAAGTACTAAATCATATAATTAT [XGTACX_site5727] | 6.04
85 | AAATTAAAAAAATAATGTACATGTATTTATTATGTA [XGTACX_site2419] | 6.63
86 | TTTCTGTGTTTTGGTTGTACACACGCTACATTATAT [XGTACX_site5669] | 7.71
87 | TTGTTTTTTTTTTCTATAAGCATAAAAATGATATAA [XGTACX_negctrl_site356] | 6.05
88 | AGTATTCACTTAATATGTACATATTTATTATAAGAG [XGTACX_site3434] | 6.85
89 | GCTTTTAAAATAATTGGTACACATGTATAAATTCAA [XGTACX_site2327] | 6.55
